# Data from publication PMC12136788.
# The other results are listed elsewhere or left out.
# T1: UNK ZnF1-6 (called full-length) (human, UniProt Q9C0B0 30-357)
# T1 sequence: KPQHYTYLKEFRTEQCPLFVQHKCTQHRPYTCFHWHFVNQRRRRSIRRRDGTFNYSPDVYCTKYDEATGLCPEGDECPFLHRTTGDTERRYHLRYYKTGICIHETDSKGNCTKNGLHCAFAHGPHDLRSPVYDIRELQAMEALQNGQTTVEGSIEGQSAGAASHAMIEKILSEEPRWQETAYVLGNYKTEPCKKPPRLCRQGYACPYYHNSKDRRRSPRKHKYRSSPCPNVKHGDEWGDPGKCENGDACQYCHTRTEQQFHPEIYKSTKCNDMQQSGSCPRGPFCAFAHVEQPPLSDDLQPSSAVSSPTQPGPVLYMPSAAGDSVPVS
# B1: chr15:90501451:90501552:+|3pUTR|ENSG00000140575|msi1_unk|FALSE|overlapping (ssRNA)
# RNA: GGGAGUUCUACAGUCCGACGAUCCUGAGCCUCUAUUUUCUUUCUUUGAUGUUUUGAUUCAGUAUUCUUUUAUCAUAAAUUUUUAGCAUUUAAAAAUUCACUGAUGUACAUUAAGCCAAUAAACUGCUUUAAUGAAUAACAAACCAACAGAGGAUUGAGCAUCA
# B2: chr4:143221337:143221438:+|3pUTR|ENSG00000170185|unk|total|mutant (ssRNA)
# RNA: GGGAGUUCUACAGUCCGACGAUCUUGAAAGGUAACCGAUUUUCCAGAAGUAAAAUCUGAUGGUUCUAAAUCAAUCAAUGUGACCGUUCAUUUUUAACUCUCCGAAGAAUUCAGAGGAAAUUAACCCAGCUAAGUAAAAAAUCUCAACAGAGGAUUGAGCAUCA
# B3: chr8:18872320:18872424:-|CDS|ENSG00000156011|unk|FALSE|bound_elsewhere (ssRNA)
# RNA: GGGAGUUCUACAGUCCGACGAUCGCCAGAAUCAUUUCCGGAACAUUACAGGCUACAAAGGUACUGGACCAAGAUGCUGUUUCUAGUUUUUCAGUUCAGCAGGUGGAAAAAGAGCUGGACACUGCCAGUCGUAAAACACAGAGACAACAGAGGAUUGAGCAUCA
# B4: chrX:55006554:55006655:+|CDS|ENSG00000169188|unk|total|mutant (ssRNA)
# RNA: GGGAGUUCUACAGUCCGACGAUCAGGGCGCAAGUGGAUGGACAGCUUGCUCAGUAACUUGGGGUGCCAGUCUGCCUCUCAUGCCGGGCCCUUCAUCGACCGCUACCGCUGCUUCCAACCAAAGCAGGAGGGGGCCUUCACCUGCAACAGAGGAUUGAGCAUCA
# B5: chr13:75481370:75481471:-|CDS|ENSG00000136111|msi1|total|mutant (ssRNA)
# RNA: GGGAGUUCUACAGUCCGACGAUCCUCAGCGCGCCCUUCCUGCGUUGCGUCCCCGCGCCGGGCGCUGGGGCCUCGGGGGGCACCCGUCCGUCGGCCACGCAGCCCAACCCGGCGGUAUUCAUCUUCGAGCACAAGGCGCAGCAUCAACAGAGGAUUGAGCAUCA
# B6: ENSG00000124766:be:win_351|CDS|ENSG00000124766|bound_else_gene|NA|bound_elsewhere_windowed (ssRNA)
# RNA: GGGAGUUCUACAGUCCGACGAUCCAAGCACAUGGCUGACUACCCCGACUACAAGUACCGGCCCAGGAAGAAGGUGAAGUCCGGCAACGCCAACUCCAGCUCCUCGGCCGCCGCCUCCUCCAAGCCGGGGGAGAAGGGAGACAACAACAGAGGAUUGAGCAUCA
# B7: chr10:15076158:15076259:-|3pUTR|ENSG00000176244|unk|total|mutant (ssRNA)
# RNA: GGGAGUUCUACAGUCCGACGAUCAGAUCCCUUAAGAUAAAUAUCCCCCAAAACAGUGUACCUCUAUUCCCUGCAUAAAAAUUCCGAUUUGGAAUGGUAUGACCAGAGGAACCGAUCCACUUCAUGUUACUACAACAACAAAACCAACAGAGGAUUGAGCAUCA
# B8: chr3:69105919:69106020:+|3pUTR|ENSG00000144746|msi1|FALSE|bound_elsewhere (ssRNA)
# RNA: GGGAGUUCUACAGUCCGACGAUCGUGCUGCUUCUGAUUUUUCUUGCAUUUUAAAUUCUCAGCCAACCUACAGCCAUGAUCUUUAGCACAGUGAUAUCACCAUGACUUCACAGACAUGGUCUAGAAUCUGUACCCUUACCCACACAACAGAGGAUUGAGCAUCA
# B9: chr17:58301230:58302447:-|three_prime_utr|ENSG00000005379|control|control|control (ssRNA)
# RNA: GGGAGUUCUACAGUCCGACGAUCGGGAAUCAAAGAGCCUUGGUGAAGGUCAGAGCUAAAUGGCUCCUUAAGGAUGAACUCUCUAGAGAAGCACCUUCCUCCUACAGGAGGGGAAACUGAGCCCACAGUGAGUAUGUAACUUGACAACAGAGGAUUGAGCAUCA
# B10: chr12:108522223:108522324:-|3pUTR|ENSG00000075856|msi1|FALSE|unique (ssRNA)
# RNA: GGGAGUUCUACAGUCCGACGAUCUCAGUCGGGUUUUCUAUAUUUUUUUAACUUAACAUUUUUUAAUAUAACCGAUUAAAAAGUAGACAGAACAGUAAAAUAAACUCCUGUGUGCCUACCAUUCAGCUUCCAGCAUUCCUCAACCAACAGAGGAUUGAGCAUCA
# B11: chr11:113276125:113276317:+|3pUTR|ENSG00000149294|msi1|total|mutant (ssRNA)
# RNA: GGGAGUUCUACAGUCCGACGAUCGUCCGUGUAAAACCGCUGCCUUUUAUUUUUUAAGGUAACAAAUACCACCCCGAGGCCGGCCGGAUCAUCCCACGCUUGCUUCCGCACAGGACAACUUUACAAAACAUGAUUGUUUACAGCCAACAGAGGAUUGAGCAUCA
# B12: chr14:53039561:53039662:-|3pUTR|ENSG00000100523|unk|FALSE|unique (ssRNA)
# RNA: GGGAGUUCUACAGUCCGACGAUCUCAAACUAUAUUUUUGUUACAGCAAACUACAUUCCAUUUGCCUUUAAAUGCUUGCAUUUUAGUUAUUGUACUGGCUACCUGUUUUUGUCUGCCCAGCAUCCUGUUUCCCCUCCUUUUGGACAACAGAGGAUUGAGCAUCA
# B13: chr11:130877263:130877364:-|3pUTR|ENSG00000120451|msi1|FALSE|unique (ssRNA)
# RNA: GGGAGUUCUACAGUCCGACGAUCCAGUCCUUUAACAACACCAGCAUGAAGGCAAAGGUGUUUUGUCAGACUGCAACAUCUAUUAGAAAGGCAAGGCAACUGGGAAUUGCUGGAGAAGGAUAAAUCAGGAGGAAUUGCUGGUAGCAACAGAGGAUUGAGCAUCA
# B14: chr11:64204363:64204470:+|3pUTR|ENSG00000168439|unk|total|mutant (ssRNA)
# RNA: GGGAGUUCUACAGUCCGACGAUCGCCCUCGAGUUCCAUGUCUCUUUCCCCUGCCCCCCGUUGCUGUCUCGGCUGCUCUCCCACCGUUGGUUUUUUUUUUAUUUGGGGCAGUGGGCAUGUUAUGGGGAGGGGAGGGGGUUCUUCCAACAGAGGAUUGAGCAUCA
# B15: chr12:54395726:54395827:-|3pUTR|ENSG00000161638|msi1_unk|total|mutant (ssRNA)
# RNA: GGGAGUUCUACAGUCCGACGAUCAAGAACACUAACUAUGCAUGGUGCCCCAGGACCAGCUCAGGACAGAUGCCACACAAGGACCGAUGCUGGCCCAGGGCCCAGAGCCCAGCUCCAAGGGGAAUCAGAACUCAAAUGGGGCCACAACAGAGGAUUGAGCAUCA
# B16: chr11:85659139:85659240:-|3pUTR|ENSG00000137504|msi1|total|mutant (ssRNA)
# RNA: GGGAGUUCUACAGUCCGACGAUCGUCUGAUUCCGUAAAAUUUUAAAGCUAAAUAAUCUGAUGACUCUUGAAAGUUUAAUUGGCCGUAUGACAUUUAUGUUUUUUUCCCCCAGACUCACAGCCAAUACAAAGUUUUGAGACUCCCAACAGAGGAUUGAGCAUCA
# B17: chr1:185309019:185309167:-|CDS|ENSG00000116679|unk|FALSE|unique (ssRNA)
# RNA: GGGAGUUCUACAGUCCGACGAUCGCACACAGAGCAGUGCUAGCUUGCUGCAGUCCCUAUUUAUUUGAAAUCUUUAAUAGUGAUAGUGAUCCUCAUGGAAUUUCUCACGUUAAAUUUGAUGAUCUCAAUCCAGAAGCUGUUGAACAACAGAGGAUUGAGCAUCA
# B18: chr18:9400975:9401076:+|3pUTR|ENSG00000128791|msi1|total|mutant (ssRNA)
# RNA: GGGAGUUCUACAGUCCGACGAUCUAUAAAAACCGAUAAUGCUCUUGGACACAUUUUGUAUUAUUCAUGAUCUGAACCGCCGUCCGUUAAAAGAUCAUUUGUAAUAUUAUGAUCAACUGUUAUAAAUUAAGGUCUUAAUACCUUCAACAGAGGAUUGAGCAUCA
# B19: chr17:42200006:42200107:-|3pUTR|ENSG00000173757|unk|total|mutant (ssRNA)
# RNA: GGGAGUUCUACAGUCCGACGAUCAAGCUGCCGUUUGCCUUGGCUUGGUUUCAUACACUGAUUUAUUUUUCUAUGCCAGGCAGCCGAGUCUCUCUGCCUCUGAGGAGCAGGCUACCCGCAUCCCACUCAGCCCCUCCCUACCCCCAACAGAGGAUUGAGCAUCA
# B20: chr12:50175971:50176072:-|3pUTR|ENSG00000050405|msi1|FALSE|bound_elsewhere (ssRNA)
# RNA: GGGAGUUCUACAGUCCGACGAUCCACAGUAUUCUCAGGGUGAAAUUAAACCAACUAUAGGCCUUUUUCUUGGGAUGAUUUUCUAGUCUUAAGGUUUGGGGACAUUAUAAACUUGAGUACAUUUGUUGUACACAGUUGAUAUUCCAACAGAGGAUUGAGCAUCA
# B21: chr5:141515350:141515460:-|3pUTR|ENSG00000131504|msi1_unk|total|mutant (ssRNA)
# RNA: GGGAGUUCUACAGUCCGACGAUCCUCAGCUUUCCAUCCCCAGCCCGGAAGAAAGAAUGGCACUCUUGGGCUUGGCCCAGAAUCCGAGUUAUCCGAGCAAGAGAGAGCUCCGGAAGCAUGAGGGCAACUACCGUGAGGCCUUAUCAACAGAGGAUUGAGCAUCA
# B22: chr3:48857559:48857660:-|3pUTR|ENSG00000178537|unk|FALSE|unique (ssRNA)
# RNA: GGGAGUUCUACAGUCCGACGAUCGGCUGAAGGCUGCUCAAGUUCACUUCUGGAUGCUGGAAGCUGUCGUUGAGGAGAAGGAGUAGUAAGCAGAACUAAGCAGUCUUGGAGGGCAAGGGGAGGGGAAUGGUGAGAUCCGAGCCCCAACAGAGGAUUGAGCAUCA
# Biological target: T1, UNK ZnF1-6 (called full-length)
# Experiment: nsRBNS (natural sequence RNA bind-n-seq); RBNS binding buffer (assumed for nsRBNS): 25 mM Tris pH 7.5, 150 mM KCl, 3 mM MgCl2, 0.01% Triton X-100, 500 ug/ml BSA, 20 U/ml SUPERase-In, 4 C; UNK is unkempt and MSI1 is Musashi-1; names of the RNAs are library labels; protein concentration not given here; high values mean tight binding
row,Binder,binding signal [enrichment R]
1,B1,1.53
2,B2,0.353
3,B3,0.668
4,B4,0.739
5,B5,0.607
6,B6,0.687
7,B7,0.388
8,B8,0.502
9,B9,0.854
10,B10,0.786
11,B11,0.91
12,B12,0.736
13,B13,1.27
14,B14,1.32
15,B15,0.826
16,B16,0.823
17,B17,0.523
18,B18,0.466
19,B19,1.13
20,B20,0.659
21,B21,0.58
22,B22,0.982
